# Measurements: PubChem BioAssay AID463173 (ICCB-Longwood Screening Facility, Harvard Medical School, 2010)
# Hit rate of the full screen: of about 52,000 compounds, about 4,300 (8.3%) were called active. Cut-off read from the data, not from the text of the source: active = survival mostly below about 52% (no sharp cut-off); inactive = mostly above about 56%. This is one part of the list.
# Tested on: DeltatarO mutant
# Assay: growth inhibition of S. aureus wild type versus tarO mutant, primary screen, teichoic acid synthesis inhibitors, RN4220, OD600 (AID 463173)
# Details: OD600, 18 h, active compounds read low, screened at 18.75 µg/mL (by protocol)
row,Compound,survival
1,Cc1cccc(OCC(=O)Nc2ccc(-c3nc4cc(C)ccc4o3)c(O)c2)c1,inactive: 68%
2,COc1ccc2cc(CN(Cc3cccnc3)Cc3nnnn3Cc3ccc(F)cc3)c(=O)[nH]c2c1,inactive: 96%
3,CCC1CN(C(=O)N2CCC(C(=O)NCCC3=CCCCC3)CC2)c2cc(C)ccc2O1 (centres undefined),inactive: 77%
4,Cc1ccc(OCC(=O)Nc2ccc(Cl)c(-c3nc4ccccc4[nH]3)c2)cc1C,active: 43%
5,COc1ccc(S(=O)(=O)N(CC(=O)N(C)Cc2ccccc2)c2ccc(Cl)cc2)cc1,inactive: 57%
6,COc1ccc(CNC(=O)CSc2nc3cc4c(cc3cc2C#N)OCCO4)cc1,inactive: 96%
7,Cn1cc(C(=O)NCc2ccc(Cl)cc2)c(=O)c2cc(S(=O)(=O)N3CCCCCC3)ccc21,inactive: 59%
8,Cc1cc(C)cc(NC(=O)N2CCN3CCCCC3C2)c1 (centres undefined),inactive: 124%
9,CCOC(=O)c1ccc(NC(=O)c2c(NCc3sccc3C)sc3c2CCCCC3)cc1,inactive: 78%
10,CC1CCCN(c2cc3c(cc2F)c(=O)c(S(=O)(=O)c2cccc(Cl)c2)cn3C)C1 (centres undefined),inactive: 67%
11,O=C1C2C(C(=O)N1/N=C/c1ccc(N3CCCCC3)o1)C1C=CC2C12CC2 (centres undefined),inactive: 73%
12,Cc1cc(C(=O)NCCc2ccc(Cl)cc2)c2c(C)nn(-c3cccc(F)c3)c2n1,inactive: 87%
13,O=C(Nc1ccccc1)c1ccc2c(c1)OCCO2,inactive: 89%
14,COC(=O)c1cc2sc(Cl)cc2n1Cc1nc(-c2ccc(OC)cc2)oc1C,inactive: 72%
15,COc1ccc(N(CC(=O)NCCc2cccc(C)c2)S(=O)(=O)c2c(C)noc2C)cc1,inactive: 61%
16,COc1cccc(C(=O)Nc2cc3cc(OC)ccc3oc2=O)c1,inactive: 83%
17,COc1ccccc1-c1nnc(SCC(=O)OC(C)C)n1-c1ccccc1,inactive: 92%
18,COC(=O)c1ccc(NC(=O)Cn2nc(C(=O)Nc3ccc(C)cc3)ccc2=O)cc1,inactive: 78%
19,Cc1ccc(NC(=O)Cn2c(CCC(=O)O)ccc2-c2ccc(Cl)cc2)cc1,inactive: 53%
20,COc1ccc(-c2[nH]c3c(c2-c2c(-n4cccc4)n(C)c(=O)n(C)c2=O)c(=O)n(C)c(=O)n3C)cc1,inactive: 74%
21,CCCCSCCCNC(=O)CN1C(=O)COc2ccc(S(=O)(=O)N3CCC(C)CC3)cc21,inactive: 111%
22,Cn1cc(C(F)(F)F)ccc1=S,inactive: 96%
23,O=C(Nc1nnc(S(=O)(=O)N2CCN(c3ccc(F)cc3)CC2)s1)c1ccc(Cl)cc1,inactive: 57%
24,COc1ccc(C)cc1NC(=O)C(=O)NCC1(c2ccccc2)CCCC1,inactive: 85%
